Data: PubChem BioAssay AID662 (National Center for Advancing Translational Sciences (NCATS), 2007)
The campaign covered roughly 71,000 compounds. About 1,800 (2.5%) were called active. The shares of active, inactive and inconclusive entries below differ from those in the screen. Calls follow the shape of the dose curve; as a rule, active = well fitted activation curve with a large enough effect in the signal ratio, with a control signal flat (not every such curve was filed as active); inconclusive = small, poorly fitted or top-dose-only effect, or effect the other way, or a change in a side signal; inactive = flat fitted curve, though single readings scatter; the % refers to the signal ratio. Where the call is inconclusive, the potency comes from a doubtful curve fit.

test: Cell signaling CRE-BLA (Fsk stim); conditions: CHO CRE-bla reporter (cAMP response element driving beta-lactamase), forskolin EC10, beta-lactamase ratio; activity change, negative = inhibition: at 38.2 µM (top of the series) unless noted; as to activity change, negative = inhibition: % of control where 0% means no effect
Outline: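 Beta-lactamase reporter under a cAMP responsive element in CHO cells; compounds tested in titration series against EC10 NKH 477, 3 h at 37 °C. Read-out: CCF4 FRET ratio 460nm/530nm (excitation 405nm) giving %Activity, fitted to AC50.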
Potency is read from the fitted curve at half-maximal effect; tags tell the direction and shape of the fitted curve.

Row | Compound | Potency | activity change, negative = inhibition
1 | Cc1cc(C(=O)Nc2ccc(N3CCOCC3)cc2)c2ccccc2n1 | inconclusive: 5.01 µM [falling, single point] | –
2 | O=c1c(/C=N/O)c(Nc2ccccc2)nc2ccccn12 | inconclusive: 10 µM [rising, partial curve] | –
3 | Nc1nc2sc3c(c2cc1C(=O)N1CCOCC1)CCCC3 | inconclusive: 0.0251 µM [rising, full curve] | –
4 | CC1CCCCN1CCNC(=O)c1cc2c(=O)n(C)c3ccccc3c2n1C (stereo unspecified) | inconclusive: 7.94 µM [rising, partial curve] | –
5 | COC(=O)c1c(-c2cc(OC)c(OC)c(OC)c2)c2ccnc(OCc3ncccn3)c2c(=O)n1Cc1ccnc(C)c1 | – | inconclusive: 24.8%
6 | CCSc1nnc(NC(=O)c2ccccn2)s1 | – | inconclusive: -25.9%
7 | O=C1Nc2cc3c(cc2Sc2ccccc21)OCCO3 | inconclusive: 5.01 µM [falling, single point] | –
8 | C[C@@]1(C(NS(=O)(=O)c2cccc3cccnc23)c2ccc(-c3ccccc3)cc2)C[C@H]1C1CCCCC1 (stereo partly specified) | – | inactive: -6.16%
9 | O=C(c1c(F)cccc1F)N1CCN(c2ccccc2F)CC1 | – | inconclusive: 8.81%
10 | Cc1cc(NC(=O)CSc2ncnc3ccccc23)no1 | – | inactive: -3.52%
11 | CC(=O)NC(Cc1ccc(F)cc1)C(=O)O (stereo unspecified) | – | inconclusive: 6.52%
12 | O=C1c2ccccc2C(=O)N1CCCSc1ccccc1 | – | inconclusive: 23.7% [at 7.6 µM]
13 | COc1cc(N/C(=N/S(=O)(=O)c2ccccc2)c2ccccc2)ncn1 | – | inconclusive: 1.45%
14 | CCCC(c1nnnn1C1CCCCC1)N1CCN(c2ncccn2)CC1 (stereo unspecified) | – | inactive: 10.8%
15 | Cc1cc(C)n(-c2nc(NCCCO)c3c4c(sc3n2)CCCC4)n1 | active: 2 µM | –
16 | CCC1CCCCN1CCCNC(=O)CNC(=O)Cn1ccc2ccccc2c1=O (stereo unspecified) | – | inconclusive: -5.04%
17 | COc1cc(C)c(CNc2ccc(OC)c(OC)c2)cc1C | – | inconclusive: 43.4% [at 7.6 µM]
18 | COC(=O)c1ccc(NC(=O)C23CCC(C)(C(=O)O2)C3(C)C)cc1 (stereo unspecified) | – | inactive: 2.81%
19 | CCNC(=O)NC(=O)C(C)OC(=O)c1cccnc1SC (stereo unspecified) | – | inconclusive: 2.17%
20 | COc1ccc(-c2nc3cnc(OC)nc3n(C3CC3)c2=O)cc1 | – | inconclusive: 17.7%
21 | CC(=O)CC(=O)NC(=NC1CCCCC1)Nc1nc(C)cc(C)n1 | – | inactive: 2.37%
22 | CC1=C(C(=O)OC(C)C)C(c2ccc(Br)s2)NC(=O)N1C (stereo unspecified) | – | inactive: 16%

Row | Compound | Potency | activity change, negative = inhibition
23 | CCC[C@@H]1C[C@@]1(CCC)[C@@H](NC(=O)c1ccccc1)c1ccc(C(=O)OC)cc1 | – | inactive: 5.13%
24 | O=S(=O)(Nc1cccnc1)c1ccc2c(c1)OCCO2 | – | inconclusive: -6.96%
25 | C/C(=N\O)c1ccc(N2C(=O)C3CC=C(Cl)CC3C2=O)cc1 (stereo unspecified) | inconclusive: 3.98 µM [rising, partial curve] | –
26 | COc1cc2c(cc1O)C(SC)=NC(C)(C)C2 | – | inconclusive: -8.88%
27 | COc1cc(C(=O)NCc2ccc(-c3nc4ccccc4o3)cc2)cc(OC)c1OC | – | inactive: 3.36%
28 | Cc1nc2cnc(N3CCN(C)CC3)nc2n(C2CC2)c1=O | – | inactive: -5.79%
29 | COC(=O)c1sccc1NC(=O)c1ccc(OC)cc1 | inconclusive: 12.6 µM [rising, single point] | –
30 | CCc1nn(-c2cc(Cl)ccc2OC)c2c1C(=O)CCC2 | – | inconclusive: 24.2%
31 | O=C(CCC1COc2ccccc2O1)Nc1cccnc1 (stereo unspecified) | inconclusive: 0.631 µM [rising, full curve, poor fit] | –
32 | Cn1nc(C(=O)Nc2sccc2C(N)=O)ccc1=O | inconclusive: 15.8 µM [rising, single point] | –
33 | CCn1c(CSc2nc(C)cc(C)n2)nnc1SCC(=O)N1CCCc2ccccc21 | inconclusive: 15.8 µM [rising, partial curve] | –
34 | O=C(O)[C@@H]1CCCN1 | – | inactive: 1.59% [at 7.6 µM]
35 | COC(=O)c1cc(OC)c(OC)cc1NC(=O)c1ccc(Br)o1 | inconclusive: 12.6 µM [rising, partial curve] | –
36 | N#Cc1cc2cc3c(cc2nc1N1CCCCC1)OCCO3 | inconclusive: 10 µM [rising, partial curve] | –
37 | CCOC(=O)Cc1c(C)c2c(C)nn(-c3ccccc3)c2oc1=O | – | inactive: 23.5%
38 | O=C(c1cc2n(n1)C(C(F)(F)F)CC(c1ccco1)N2)N1CCc2ccccc2C1 (stereo unspecified) | – | inconclusive: -14.5%
39 | Cn1c(=O)n(CC(=O)N2CCOCC2)c2ccccc21 | – | inactive: -1.07%
40 | NC(=O)C[C@@H]1N[C@]2(C(=O)Nc3ccccc32)[C@@H]2C(=O)N(C3CCCCC3)C(=O)[C@H]12 | – | inconclusive: 9.64%
41 | CCOc1ccc(Nc2oc(Cc3ccccc3)nc2C#N)cc1 | inconclusive: 10 µM [rising, single point] | –
42 | CCNc1nc(N)c(C(=O)c2ccc(Cl)s2)s1 | inconclusive: 12.6 µM [falling, partial curve] | –
43 | CCCCc1ccc(NC(=O)c2c(C)noc2C)cc1 | – | inconclusive: 9.07% [cytotoxic]
44 | c1coc(C2Nc3cccc4cccc(c34)N2)c1 | – | inactive: 7.52%

Row | Compound | Potency | activity change, negative = inhibition
45 | CCOc1ccc2nc(SCC(=O)NCc3ccco3)sc2c1 | – | inconclusive: 14.9%
46 | CC(C)(C)c1ccc(C(=O)/C=C2\NC(=O)CS2)cc1 | – | inactive: 15.5%
47 | Cc1cc(C)n2nc(SC3CCCCN(C(=O)c4ccc(F)cc4)C3=O)nc2n1 (stereo unspecified) | – | inactive: 21%
48 | O=C(CSc1ccc2nnc(-c3ccccn3)n2n1)NCc1ccco1 | – | inconclusive: -13%
49 | Cc1nc(N2CCOCC2)c2nc(-c3ccccc3)n(C(C)CN(C)C)c2n1 (stereo unspecified) | – | inactive: -4.16%
50 | O=S1(=O)N=CN(Cc2cccc(F)c2)c2ccccc21 | – | inconclusive: -49.6%
51 | CCC1(C)Nc2ccccc2C(=O)N1O (stereo unspecified) | – | inactive: -2.47%
52 | COc1ccc(CC(=O)N2CCOCC2)cc1OC | – | inactive: 20.5%
53 | CCOCCCNC(=O)c1cc2c(=O)n3cccc(C)c3nc2n1C | active: 0.251 µM | –
54 | Cc1nc2ccccc2c(=O)n1NC(=O)c1c(O)c2ccccc2n(C)c1=O | – | inactive: 0.959%
55 | CCOCCCNC(=O)c1c(C)[nH]c(C(=O)OCC)c1C | – | inconclusive: 33.5%
56 | CCOC(=O)CCc1nc2ccccc2[nH]c1=O | inconclusive: 25.1 µM [rising, single point] | –
57 | COc1ccc(C2c3c(oc4ccccc4c3=O)C(=O)N2CCN2CCOCC2)cc1OC (stereo unspecified) | – | inactive: 16.8%
58 | COc1ccc(-c2nc3cnc(N(C)C)nc3n(Cc3cccs3)c2=O)cc1 | inconclusive: 3.16 µM [rising, partial curve] | –
59 | N#CC1=C(N)Oc2cc(N)ccc2C1C1CCCCC1 (stereo unspecified) | – | inconclusive: -5.43%
60 | COc1ccc(C(=O)CSc2nnc(-c3cc4ccccc4cc3O)n2Cc2ccco2)cc1 | – | inconclusive: 0.413% [cytotoxic]
61 | Cc1cc(C)n(-c2nc3c(c(=O)[nH]c(=O)n3C)n2CC(C)C)n1 | inconclusive: 2.51 µM [rising, single point] | –
62 | O=C(O)c1[nH]c2c([N+](=O)[O-])cc([N+](=O)[O-])cc2c1C(=O)O | – | inconclusive: 5.55% [at 7.6 µM]
63 | NC(=O)COc1c(-c2ccccc2)oc2ccccc2c1=O | – | inconclusive: 22.2%
64 | COc1ccc(NC(=O)CSc2nnc(-c3ccccn3)n2N)cc1Cl | – | inconclusive: 20.8%
65 | Cc1noc(C)c1-c1nccc(NCc2cccs2)n1 | – | inconclusive: 28.7%
66 | CCC1Sc2ccccc2N(CC(=O)NCc2ccc3c(c2)OCO3)C1=O (stereo unspecified) | – | inconclusive: -0.964%

Row | Compound | Potency | activity change, negative = inhibition
67 | O=C1CC(N2CCN(c3ccccc3F)CC2)C(=O)N1c1ccc2c(c1)OCCO2 (stereo unspecified) | – | inconclusive: -9.71%
68 | c1ccc2c(c1)nc(NCC1CCCO1)c1nnnn12 (stereo unspecified) | – | inconclusive: 29.2%
69 | Nn1c(Cc2ccccc2F)nnc1SCn1nnc2ccccc2c1=O | inconclusive: 0.631 µM [falling, single point] | –
70 | CNc1ccnc(-c2c(C)noc2C)n1 | – | inconclusive: -1.12%
71 | CCC(=O)Nc1ccc(C(=O)n2ccc(C)n2)cc1 | – | inactive: -7.92%
72 | O=C(CSc1nc2ccccc2c(=O)[nH]1)N1CCCCC1 | – | inconclusive: 29.7%
73 | NC(=O)CSc1oc(-c2cccs2)nc1S(=O)(=O)c1ccccc1 | – | inconclusive: -15.7%
74 | O=C(Nc1cccc(Cl)c1)N1CCN(c2ncccn2)CC1 | – | inconclusive: 18.6%
75 | NC(=O)/N=N/C(N)=O | active: 1.26 µM | –
76 | CSc1nnc2c3c4c(sc3nc(-n3nc(C)cc3C)n12)COC(C)(C)C4 | inconclusive: 3.98 µM [rising, partial curve] | –
77 | Cc1cc(C)nc(-n2nc(C)c(Sc3ccc(F)cc3)c2N)n1 | active: 2 µM | –
78 | CCOC(=O)C1CCCN(C(=O)Cn2sc3nc(C)cc(C)c3c2=O)C1 (stereo unspecified) | inconclusive: 25.1 µM [falling, single point] | –
79 | COc1cc2c(cc1OC)C(C)N(C(=O)CCN1C(=O)C3C4C=CC(C4)C3C1=O)CC2 (stereo unspecified) | – | inconclusive: -2.82%
80 | CCc1c(C)nc(SCC(=O)c2ccc(C)c(C)c2)[nH]c1=O | inconclusive: 12.6 µM [rising, single point] | –
81 | COc1ccc(S(=O)(=O)N(CCCN2CCOCC2)Cc2ccc(OC)c(OC)c2)cc1 | – | inconclusive: -10.3%
82 | O=c1cc(CSc2nc3cc(Cl)ccc3o2)nc2sccn12 | inconclusive: 10 µM [rising, partial curve] | –
83 | Clc1ccc2nc(CSc3nnc(-c4c[nH]c5ccccc45)o3)cn2c1 | – | inconclusive: 22.3%
84 | CCCn1c(=O)c2ccccc2n2c(SCc3cc(=O)n4ccsc4n3)nnc12 | – | inactive: 6.44%
85 | O=C(CCSc1nc(-c2ccc3c(c2)OCO3)cc(C(F)(F)F)n1)NCc1ccco1 | – | inactive: 16.7%
86 | C[N+]1(C)CC[C@@H](OC(=O)[C@@](O)(c2ccccc2)C2CCCC2)C1 | – | inactive: 1.71% [at 17.1 µM]
